These results are taken from PubChem BioAssay AID504374 (National Center for Advancing Translational Sciences (NCATS), 2011).

Among all 1,500 compounds or so, about 100 (6.7%) were called active. Another 7% or so got no clear call; they are omitted. The call rests on the fitted dose curve; in most records, active means well fitted inhibition curve with a large enough effect; inconclusive means small, poorly fitted or top-dose-only effect, or effect the other way; inactive means flat fitted curve, though single readings scatter. This is one part of the list.
On the % scale 0 is the no-effect control and ±100 the full control effect; potency means the concentration at half of the fitted maximal effect.

The target in this experiment is Runt-related transcription factor 1 (Homo sapiens) + Core-binding factor subunit beta (Homo sapiens) (UniProt Q01196+Q13951). As to the kind of experiment: qHTS Assay for Compounds Blocking the Interaction Between CBF-beta and RUNX1 for the Treatment of Acute Myeloid Leukemia: Hit Validation. Further: nearly all actives have a fitted effect of over 60% in size. Conditions: AlphaScreen CBFb-His/RUNX1-biotin binding; series mostly up to 59.8 µM; activity, negative = inhibition: at the top concentration. The method, boiled down: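 Compounds were added to a premixed CBF-beta-His/RUNX1-biotin complex (30 nM each, 20 min) for 15 min. Nickel and streptavidin AlphaScreen beads followed for 90 min at room temperature, with emission at 440 nm […].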
Chain of UniProt Q01196 (Q01196 whole entry, looked up): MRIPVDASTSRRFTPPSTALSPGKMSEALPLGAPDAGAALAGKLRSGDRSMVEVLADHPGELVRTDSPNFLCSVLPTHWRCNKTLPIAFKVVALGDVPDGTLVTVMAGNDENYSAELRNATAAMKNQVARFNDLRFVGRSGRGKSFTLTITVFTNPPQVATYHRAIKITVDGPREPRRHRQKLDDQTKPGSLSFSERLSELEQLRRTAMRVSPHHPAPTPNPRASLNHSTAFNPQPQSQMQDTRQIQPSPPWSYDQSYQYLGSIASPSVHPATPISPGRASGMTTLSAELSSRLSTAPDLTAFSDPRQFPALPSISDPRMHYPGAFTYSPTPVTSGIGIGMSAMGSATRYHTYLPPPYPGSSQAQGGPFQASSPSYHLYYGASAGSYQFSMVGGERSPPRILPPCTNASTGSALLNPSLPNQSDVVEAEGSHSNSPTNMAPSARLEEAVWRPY
Chain of UniProt Q01196 (Q13951 whole entry, looked up): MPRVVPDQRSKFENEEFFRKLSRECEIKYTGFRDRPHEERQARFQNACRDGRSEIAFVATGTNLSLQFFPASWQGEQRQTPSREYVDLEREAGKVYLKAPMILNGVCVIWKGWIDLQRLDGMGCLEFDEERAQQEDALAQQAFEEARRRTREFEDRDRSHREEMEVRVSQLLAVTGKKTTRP
A general note: qHTS replaces the single test concentration by a dilution series.
For the compound `Nc1c(Cl)ncnc1NCC(O)CO` (stereo unspecified), the “activity, negative = inhibition” value is inactive: -6.28%.

As for `CC(C)c1nc(C#N)c(NN)o1`, the “activity, negative = inhibition” value was inactive: -5.01%. On the same count and under the same terms, with `N=c1c2c(ncn1CCCO)Oc1cc(O)ccc1C2c1ccccc1` (stereo unspecified) the figure was inactive: 7.45%. As to `CCCCCNc1nc2sc3c(c2c(=O)n1-c1cccc(Cl)c1)CCN(C)C3`, the “activity, negative = inhibition” value is inactive: 8.25%. `CC1CC(C)(C)NC(=S)O1` (stereo unspecified): the “activity, negative = inhibition” value was inactive: -3.02%. On to `COc1cscc1C(=O)O`, for which the “activity, negative = inhibition” value is inactive: 1.2%. Regarding `Cc1c(-c2ccccc2)[n+](=O)c2c(n1[O-])CCCC2`, the “activity, negative = inhibition” value was inactive: 5.18%.

With `NC[C@@H](O)c1ccc(O)c(O)c1`, the Potency is active: 2820 nM.

Regarding `Cc1cccc(C)c1NC(=S)N1CC(C)OC(C)C1` (stereo unspecified), the “activity, negative = inhibition” value was inactive: -4.3%.

Regarding `Cc1ccc(S(=O)(=O)Nc2cc(-c3ccccc3)nn2C)cc1Cl`, the “activity, negative = inhibition” value was inactive: -23.6%. Regarding `COC(=O)c1ccc(S(=O)(=O)NC(C)(C)C)n1C`, the “activity, negative = inhibition” value is inactive: 11.4%. Same read-out and setting: with `CN(C)c1cc(-c2ccc(C#N)cc2)oc(=O)c1Cl` the figure was inactive: -2.74%.

As for `Nn1c(SCc2cccc(F)c2)nnc1-c1cccnc1`, the “activity, negative = inhibition” value was inactive: -12%.

In the case of `COc1ccc(C(=O)/C=C/Nc2cc(C)ccn2)cc1`, the “activity, negative = inhibition” value is inactive: -3.04%. Regarding `COCCn1c(-c2ccc(Cl)cc2)nc2oc3cc(OC)ccc3c(=O)c2c1=O`, the “activity, negative = inhibition” value is inactive: -1.81%. For the compound `O=C(CNCc1ccco1)Nc1cccc(S(=O)(=O)N2CCCCC2)c1`, the “activity, negative = inhibition” value was inactive: -6.89%. The same measure, in the same setting: the result for `C/C(=N\NC(=O)c1cc(-c2cccc([N+](=O)[O-])c2)n[nH]1)c1ccc(F)cc1` reads inactive: -6.24%. As for `O=C(c1ccc(Cn2ccc([N+](=O)[O-])n2)cc1)N1CCN(Cc2ccccc2)CC1`, the “activity, negative = inhibition” value is inactive: 1.19%. Still for that read-out and setting: with `N#Cc1cc(-c2ccccc2)[nH]c1-c1nccc2ccccc12` the figure was inactive: 3.89%. For the compound `Cc1cc(OCC(=O)c2ccc(C(F)(F)F)cc2)n2cnnc2n1`, the “activity, negative = inhibition” value is inactive: -0.263%. Same read-out and setting: the result for `CCn1c(O)c(C=NCc2ccccc2)sc1=S` reads inactive: -18.1%. Still for that read-out and setting: with `CC(C)CC(=O)NC(=S)Nc1ccc(N2CCCC2)c(Cl)c1` the figure was inactive: -8.35%. For `Cc1ccccc1CSc1nnc([C@@H]2CCCN2)o1`, the “activity, negative = inhibition” value is inactive: -3.62%. `COc1ccc([N+](=O)[O-])cc1NC(=O)N(C)Cc1ccco1`: the “activity, negative = inhibition” value is inactive: -1.51%.

With `O=C(N/N=C/c1ccc2nccnc2c1)c1ccncc1`, the “activity, negative = inhibition” value is inactive: -7.59%.

Turning to `CC(=O)Nc1nc(C)c(-c2csc(Nc3ccc(S(N)(=O)=O)cc3)n2)s1`, the “activity, negative = inhibition” value is inactive: -0.545%. Still for that read-out and setting: the result for `O=C(O)c1ccc(COc2ccc3c(c2)CCC3)cc1` reads inactive: -0.771%; that for `CCOC(=O)c1cn2nc(Oc3ccc(C(=O)OC)cc3)ccc2n1`, inactive: 6.89%. For `C=CCN=C1S/C(=C\c2ccc(N(C)C)cc2)C(=O)N1CC=C`, the “activity, negative = inhibition” value was inactive: -1.48%.

Take `CCCCC12CN3CC(C)(CN(C1)C3c1ccc([N+](=O)[O-])o1)C2=O` (stereo unspecified): the “activity, negative = inhibition” value is inactive: -12.1%. Same read-out and setting: with `Cc1cc(C)nc(S/C=C/C(=O)c2ccc(F)cc2)n1` the figure was inactive: -7.34%. Still for that read-out and setting: the result for `CC(=O)c1cnn(-c2c(Cl)cc(Cl)cc2Cl)c1C` reads inactive: 3.69%; that for `COc1ccc(-n2c(SCC(=O)Nc3cccc4ccccc34)nc(O)cc2=O)cc1`, inactive: -6.1%.

As to `C#CCCOC(=O)Nc1ccccc1`, the “activity, negative = inhibition” value is inactive: -18.8%. In the case of `CCCCC1C2C(=O)N(c3ccc(C)cc3)C(=O)C2ON1c1ccccc1` (stereo unspecified), the “activity, negative = inhibition” value was inactive: -2.92%.

In the case of `Cc1nc(C)c(-c2ccn(C(=O)NC(C)C)n2)s1`, the “activity, negative = inhibition” value is inactive: 0.607%. The same measure, in the same setting: the result for `C=CN1CCCC1=O` reads inactive: -5.62%; that for `COc1cccc(/C=N/NC(=O)CCn2cnc3ccccc32)c1`, inactive: -10.5%.

Take `COc1ccc(NC(=O)c2cccs2)cn1`: the “activity, negative = inhibition” value is inactive: 4.88%.

With `CCCCNC(=O)NCCN1CCOCC1`, the “activity, negative = inhibition” value was inactive: 0.241%. `CSc1cccc(NC(=O)C(=O)NCc2ccccc2)c1`: the “activity, negative = inhibition” value is inactive: -2.4%.

Consider `Cc1csc2ncnc(N3CCN(C(=S)Nc4ccc(F)cc4F)CC3)c12`, for which the “activity, negative = inhibition” value was inactive: -2.92%.

Take `CCCCSc1cc(C)nc(N)n1`: the “activity, negative = inhibition” value is inactive: -2.39%. In the case of `COc1ccc(NC(=O)c2cc(S(=O)(=O)N3CCCC3)oc2C)cc1`, the “activity, negative = inhibition” value is inactive: 3.96%. Regarding `CCNc1nc(N)c(C(=O)C23CC4CC(CC(C4)C2)C3)s1`, the “activity, negative = inhibition” value is inactive: -4.49%. Turning to `CCOc1ccc(Nc2c3ccccc3nc3ccccc23)cc1`, the “activity, negative = inhibition” value was inactive: -13%. On the same count and under the same terms, the result for `Clc1ccc(Nc2ncnc3c2nnn3Cc2ccccc2)cc1` reads inactive: -3.84%; that for `CC(C)(C)SCCNS(=O)(=O)c1ccc(C#N)cc1`, inactive: -9.27%. Take `O=C(CSc1nc2cc(Cl)c(Cl)cc2[nH]1)c1ccc2c(c1)OCO2`: the “activity, negative = inhibition” value is inactive: 3.05%. The same measure, in the same setting: the result for `OC[C@H](O)[C@H](O)[C@@H](O)[C@@H](O)[C@@H]1SC(c2ccccc2)=NN1c1ccccc1` reads inactive: -6.14%; that for `O=[N+]([O-])c1cccnc1Oc1cccnc1`, inactive: 0.234%. Same read-out and setting: with `CC(C)CC(=O)N=C1SC2CS(=O)(=O)CC2N1Cc1ccccc1Cl` (stereo unspecified) the figure was inactive: -6.59%; with `Cn1c(N)c(C(=O)Nc2ccc(-c3ccccc3)cc2)sc1=S`, inactive: -4.06%; with `CCn1c(NC(=O)C(C)C)c(-c2cccs2)c(=O)c2ccccc21`, inactive: -7.71%. Same read-out and setting: with `Cc1cc2nc(-c3ccccc3)cc(=O)n2[nH]1` the figure was inactive: -8.72%; with `Cc1ccc(S(=O)(=O)NNC(=O)c2cc(C)cs2)cc1`, inactive: -3.52%; with `Fc1ccc(C2=Nn3c(nnc3-c3ccco3)SC2)cc1`, inactive: 4.79%.

Take `CCc1nc2oc3ccccc3c(=O)c2c(=O)n1-c1ccc(C)cc1`: the “activity, negative = inhibition” value is inactive: -12.1%. Turning to `CCOC(=O)Nc1ccc(C(=O)/C=C/c2ccccc2)cc1`, the “activity, negative = inhibition” value was inactive: -17.5%. Still for that read-out and setting: the result for `CC(C)(C)OC(=O)N1CCCN(C(=O)Nc2ccc(C(F)(F)F)cc2)CC1` reads inactive: 6.22%; that for `NC(=O)C1CCN(C(=O)Nc2csc3ccccc23)CC1`, inactive: 5.62%.
